Out of some 280,000 compounds screened, about 1,100 (0.39%) were called active. This list was built around the results that the source calls inconclusive (neither active nor inactive); the mix of calls is not that of the screen. The call rests on the fitted dose curve; in most records, active means well fitted inhibition curve with a large enough effect; inconclusive means small, poorly fitted or top-dose-only effect, or effect the other way; inactive means flat fitted curve, though single readings scatter. No potency is given beside an inconclusive call; the fits are too rough.
What follows are molecules tested against Microtubule-associated protein tau (Homo sapiens) (UniProt P10636) (assay: qHTS for Inhibitors of Tau Fibril Formation, Fluorescence Polarization). Conditions: K18 P301L tau heparin fibrillization, Alexa594 FP, 6 h; series mostly up to 57.7 µM.
Procedure, shortened: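 Heparin (20 uM) drove fibril formation of recombinant tau K18 P301L, 15 uM unlabeled with 0.24 uM Alexa 594 label, for 6 hr at 37 C in 100 mM sodium acetate pH 7. Fluorescence polarization (555/632 nm) read 1 hr after 30 uM ThT.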
Further: nearly all actives have a fitted effect of over 55% in size.
On the % scale 0 is the no-effect control and ±100 the full control effect; potency means the concentration at half of the fitted maximal effect; tags describe the fitted curve by direction and shape.

Chain of UniProt P10636 (P10636 whole entry, looked up): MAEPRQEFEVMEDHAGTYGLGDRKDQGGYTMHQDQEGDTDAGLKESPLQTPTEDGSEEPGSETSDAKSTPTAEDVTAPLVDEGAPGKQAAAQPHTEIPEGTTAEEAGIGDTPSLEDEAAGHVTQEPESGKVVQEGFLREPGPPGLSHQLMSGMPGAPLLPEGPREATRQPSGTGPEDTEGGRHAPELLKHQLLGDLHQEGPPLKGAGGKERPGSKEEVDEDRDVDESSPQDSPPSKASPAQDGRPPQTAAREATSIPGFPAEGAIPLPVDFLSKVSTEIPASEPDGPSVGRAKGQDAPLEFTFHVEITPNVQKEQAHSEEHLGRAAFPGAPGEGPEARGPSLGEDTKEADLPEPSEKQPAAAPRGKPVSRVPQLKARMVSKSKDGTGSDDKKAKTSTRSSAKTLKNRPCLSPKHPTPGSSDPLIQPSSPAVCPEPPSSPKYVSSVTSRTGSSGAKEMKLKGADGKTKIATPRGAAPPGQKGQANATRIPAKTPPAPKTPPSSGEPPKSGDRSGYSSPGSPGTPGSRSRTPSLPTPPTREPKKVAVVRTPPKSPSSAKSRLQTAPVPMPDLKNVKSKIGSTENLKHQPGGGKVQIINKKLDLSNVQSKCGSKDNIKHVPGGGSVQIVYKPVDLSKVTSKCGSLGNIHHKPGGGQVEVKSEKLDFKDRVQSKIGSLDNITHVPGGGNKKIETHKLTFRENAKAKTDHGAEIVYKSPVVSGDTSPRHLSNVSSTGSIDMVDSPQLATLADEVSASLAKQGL

Row | SMILES | Potency | activity, negative = inhibition
1 | CC(=O)N1N=C2C3CCN(CC3)C2C1c1ccc(C)cc1 (centres undefined) | inconclusive [activator, single point] | 
2 | CN1CCN(c2ccc(/C=C3\C(=O)NC(=S)N(c4cccc(Br)c4)C3=O)o2)CC1 | inactive | 
3 | O=C(Nc1cccc(C(F)(F)F)c1)c1cccn(Cc2ccc3c(c2)OC(F)(F)O3)c1=O | inconclusive [inhibitor, full curve] | 
4 | CCN(c1ccccc1)S(=O)(=O)c1ccc(NC(=O)c2cc(=O)c3ccccc3o2)cc1 | inconclusive [inhibitor, partial curve] | 
5 | O=C1NC(=O)c2c1c1c3ccccc3[nH]c1c1[nH]c3ccccc3c21 | inactive | 
6 | S=c1[nH]c2cc(Br)cnc2[nH]1 | inconclusive [inhibitor, partial curve] | 
7 | Cn1c(O)c(C=NC2CCCCC2)c(=O)[nH]c1=S | inactive | 
8 | O=C1NC(=O)N(c2ccc(Cl)cc2)C(=O)/C1=C\c1ccc(Sc2nc3ccccc3[nH]2)o1 | inconclusive [inhibitor, partial curve] | 
9 | CNC(=O)Oc1cccc(-c2cn3cc(Cl)ccc3n2)c1 | inactive | 
10 | Nc1c(C(=O)NCC2CCCO2)c2nc3ccccc3nc2n1Cc1ccco1 (centres undefined) | inconclusive [inhibitor, partial curve] | 
11 | NC(=S)/N=C/c1c(O)[nH]c(=O)[nH]c1=O | inconclusive [inhibitor, single point] | 
12 | COC(=O)C12C/C=C\Cc3ccccc3[C@@H]1CNC2=O (some centres undefined) | inconclusive [inhibitor, partial curve] | 
13 | COc1ccc(/C=N\N=C(N)N)cc1 | inactive | 
14 | Nc1ccccc1C(=O)c1ccccc1 | inconclusive [activator, single point] | 
15 | C[C@]12Cc3cn4c(nc3C=C1CCC1C2CC[C@@]2(C)[C@H]1CC[C@@]2(O)C#N)nc1ccccc14 (some centres undefined) | inactive | 
16 | COc1cc(O)c(C(=O)c2ccccc2)cc1S(=O)(=O)O | inconclusive [inhibitor, single point] | 
17 | CC(C)C1C(=O)N2CCCC2[C@]2(O)O[C@@](NC(=O)[C@@H]3C=C4c5cccc6[nH]cc(c56)C[C@H]4N(C)C3)(C(C)C)C(=O)N12 (some centres undefined) | inconclusive [inhibitor, single point] | 
18 | NCCc1cc(O)c(O)cc1O | active: 25.1 µM | 
19 | O=C(N/N=C/c1c(O)n(Cc2ccccc2)c(=O)[nH]c1=O)c1ccccc1O | inconclusive [inhibitor, single point] | 
20 | CC(C)Oc1cc(-n2c(=S)[nH]c3ccccc3c2=O)c(Cl)cc1Cl | inconclusive [inhibitor, partial curve] | 
21 | CC(C)CCn1c(N)c(C(=O)NCc2cccs2)c2nc3ccccc3nc21 | inconclusive [inhibitor, partial curve] | 
22 | C=CCN1C(=O)/C(=C/c2cc(C)n(-c3cccnc3)c2C)C(=O)NC1=S | inconclusive [inhibitor, partial curve] | 

Row | SMILES | Potency | activity, negative = inhibition
23 | CC(C)[C@H](CN(N=O)[C@@H](Cc1ccccc1)CN(C)N=O)N(CCc1ccccc1)N=O | inconclusive [activator, single point] | 
24 | CCc1ccc(NC(=O)CN2C(=O)C3(SCC(=O)N3c3ccc(F)c(F)c3)c3ccccc32)cc1 (centres undefined) | inconclusive [inhibitor, single point] | 
25 | O=C(/C=C/c1ccccc1)NC(NC(=S)Nc1cccc2cccnc12)C(Cl)(Cl)Cl (centres undefined) | inconclusive [inhibitor, partial curve, poor fit] | 
26 | CN1CCN(c2ccc([N+](=O)[O-])c3no[n+]([O-])c23)CC1 | inconclusive [inhibitor, partial curve] | 
27 | O=C(COC(=O)CCc1c[nH]c2ccccc12)Nc1ccc([N+](=O)[O-])cc1 | inconclusive [inhibitor, single point] | 
28 | CC1(C)C[C@H]2C=C(C=O)[C@]3(C=O)C[C@]3(C)[C@H]2C1 | inconclusive [inhibitor, partial curve] | 
29 | Cn1c(O)c(C(=O)c2ccccc2F)c(=O)n(C)c1=O | inconclusive [inhibitor, single point] | 
30 | O=c1[nH]c(=O)n(C2CCCCC2)c(O)c1C1NCCc2ccccc21 (centres undefined) | inconclusive [inhibitor, single point] | 
31 | CCOc1cc(C2C(C#N)=C(N)Oc3c2c(=O)oc2ccccc32)ccc1OC(=O)c1cccs1 (centres undefined) | inconclusive [inhibitor, partial curve] | 
32 | CC(N)[C@H](O)c1ccc(O)c(O)c1 (some centres undefined) | inconclusive [inhibitor, full curve] | 
33 | CN1CCc2nc(CO)c(CO)cc2C1 |  | inactive: -4.94% [at 11.6 µM]
34 | O=c1[nH]cc(COCC(F)(F)C(F)(F)C(F)(F)F)c(=O)[nH]1 | inactive | 
35 | Cc1ccc2c(c1)[C@@H]1CN(C)CC[C@@H]1N2C(=O)Nc1cccc(C(F)(F)F)c1 | inconclusive [inhibitor, partial curve] | 
36 | Fc1ccccc1CCNCc1cccc2ccccc12 | inactive | 
37 | NNC(=O)c1ccc(Cl)cc1 | inconclusive [inhibitor, single point] | 
38 | Cc1cccc2sc(NC(=O)c3cccn(Cc4ccccc4)c3=O)nc12 | inconclusive [inhibitor, partial curve] | 
39 | Cn1nc(OC(=O)Nc2ccc(Cl)cc2)cc1C(F)(F)F | inconclusive [inhibitor, partial curve] | 
40 | O=C(Cn1ncc2c3ccccc3n(Cc3ccc(F)cc3)c2c1=O)N1CCC2(CC1)OCCO2 | inconclusive [activator, single point] | 
41 | Cc1ncoc1C(=O)NCCC(c1ccccc1)c1ccccc1 | inconclusive [inhibitor, partial curve, poor fit] | 
42 | CCn1cc2nc(SCc3ccccc3Cl)n(CCc3ccccc3)c(=O)c2n1 | inconclusive [inhibitor, full curve, poor fit] | 
43 | N#Cc1c(/N=C/c2c(O)n(Cc3ccco3)c(=O)[nH]c2=O)sc2c1CCCC2 | inconclusive [inhibitor, partial curve] | 
44 | O=C(O)c1cccc2c1NC(c1cccc([N+](=O)[O-])c1)C1CC(Sc3ccccc3[N+](=O)[O-])C(Cl)C21 (centres undefined) | inconclusive [inhibitor, single point] | 

Row | SMILES | Potency | activity, negative = inhibition
45 | CN(C)/C=C1/C(=O)NC(=O)N(CCNc2ncc(C(F)(F)F)cc2Cl)C1=O | inconclusive [inhibitor, partial curve, poor fit] | 
46 | COc1ccc(-n2[nH]c3c4c(ncc3c2=O)CCCCC4)cc1 | inconclusive [activator, partial curve, poor fit] | 
47 | O=C(Nc1ccc2nc(SCC(=O)N3CCOCC3)sc2c1)c1ccc(Cl)cc1 | inconclusive [inhibitor, partial curve] | 
48 | Oc1ccc2c3c1O[C@H]1c4[nH]c5c(c4C[C@@]4(O)[C@@H](C2)N(CC2CC2)CC[C@]314)C[C@@]1(O)[C@H]2Cc3ccc(O)c4c3[C@@]1(CCN2CC1CC1)[C@H]5O4 | inconclusive [inhibitor, partial curve, poor fit] | 
49 | BrCC1C[n+]2c(SCc3ccccc3)nc3sc4c(c3c2O1)CCCC4 (centres undefined) | inactive | 
50 | COc1ccc2c(c1O)-c1cccc3c1C(C2)N(C)CC3 (centres undefined) | inconclusive [inhibitor, single point] | 
51 | O=c1[nH]c(=S)n(C2CC2)c(O)c1/C=N/Nc1ccccc1 | inconclusive [inhibitor, partial curve] | 
52 | COc1ccc(C(=O)NCCn2cc(SC(C)c3ccccc3)c3ccccc32)cc1OC (centres undefined) | inconclusive [inhibitor, partial curve, poor fit] | 
53 | CC1COC2N=C(N[N+](=O)[O-])NC2O1 (centres undefined) | inactive | 
54 | CCOC(=O)C1CCN(/C=C2/C(=O)NC(=O)N(Cc3ccco3)C2=O)CC1 | inconclusive [inhibitor, single point] | 
55 | C=CCN1CCC23c4c5ccc(O)c4O[C@H]2C(=O)CC[C@@]3(O)C1C5 (some centres undefined) | inconclusive [inhibitor, full curve, poor fit] | 
56 | CN1C(=O)NC(=O)/C(=C/c2ccc([N+](=O)[O-])s2)C1=O | active: 28.2 µM | 
57 | N#C/C(=C\c1ccc(O)cc1)C(=O)O | inactive | 
58 | Cn1c(O)c(C(=O)c2ccccc2)c(=O)n(C)c1=O | inconclusive [inhibitor, single point] | 
59 | Cn1c(O)c(/C=C/C=Nc2ccccc2)c(=O)n(C)c1=S | inconclusive [inhibitor, partial curve] | 
60 | COc1ccc(C(=O)Nc2ccc(-c3cc(C(F)(F)F)nn3-c3ccccc3)cc2)cc1OC | inconclusive [inhibitor, partial curve] | 
61 | Cc1cccc(C2CC(=O)Oc3c2c(=O)oc2ccccc32)c1 (centres undefined) | inconclusive [inhibitor, single point] | 
62 | CC(=O)C(Sc1ncnc2c1nnn2-c1ccc(F)cc1)C(=O)N(C)C (centres undefined) | inconclusive [inhibitor, partial curve] | 
63 | O=C1NC(=S)N(C2CC2)C(=O)/C1=C/c1ccc2c(c1)CCN2CCCCl | inconclusive [inhibitor, partial curve] | 
64 | O=C(N/N=C/c1c(O)n(CCc2ccccc2)c(=O)[nH]c1=O)c1ccncc1 | inactive | 
